Reference: CN117756933A (INST MILITARY MEDICINE ACADEMY MILITARY SCIENCES PLA, dated 2024)

Target: 鼠疫菌F1重组蛋白 (Yersinia pestis)

Row | Binder | Kd [nM]
1 | 重链抗体FW3-R1-Fc (Fc fusion) heavy: EVQLVESGGGLVQPGGSLRLSCAASGFIFSDYGMSWVRQAPGKDLEWVSGISNLGSYTYYADSVKGRFTISRDNAKNTLSLQMNSLRAEDTALYYCTRGGTLGTMTYPKYAGQGTLVTISSAS[human IgG1 Fc with changes left out] | 3.42
2 | 重链抗体FW3-Fc (Fc fusion) heavy: EVQLVESGGGLVQPGGSLRLSCAASGFIFSDYGMSWVRQAPGKDLEWVSGISNLGSYTYYADSVKGRFTISRDNAKNTLSLQMNSLKSEDTALYYCTRGGTLGTMTYPKYAGQGTQVTISSAS[human IgG1 Fc with changes left out] | 4.43
3 | 重链抗体FW3-R3-Fc (Fc fusion) heavy: EVQLVESGGGLVQPGGSLRLSCAASGFIFSDYGMSWVRQAPGKDLEWVSGISNLGSYTYYADSVKGRFTISRDNAKNTLSLQMNSLRAEDTALYYCTRGGTLGTMTYPKYAGQGTLVTVSSAS[human IgG1 Fc with changes left out] | 4.36
